# Reference: the supplement of paper PMC7826260
# The other results are listed elsewhere or left out. Viral Rep nickase domains cut single-stranded DNA in vitro for 1 h at 37 °C with 3 µM enzyme; only the middle of the 90-letter strands is printed. Uncut reads are compared with the no-enzyme pool on a log2 scale; uncut sequences lie near 0, cut ones below; no hit call is given. Because reads are shares of a total, they shift together; uncut strands gain when others are lost, and binding without cutting may add a little.
# Experiments:
# Test in all cases: uncleaved DNA left, log2 of reads against the no-enzyme library (log2 ratio); higher = less cleavage (more negative = more Rep cleavage of the k-mer); sequences stand for … in CTCGTCCG…ACCGGAGA
# [1] = test system: T1, Rep nickase domain of Muscovy duck circovirus
# T1 sequence (Rep 1-111, printed without the tag): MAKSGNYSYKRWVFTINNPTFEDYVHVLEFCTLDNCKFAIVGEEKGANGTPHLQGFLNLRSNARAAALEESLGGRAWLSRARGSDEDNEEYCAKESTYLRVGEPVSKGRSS
# Description: (§1)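 A pool of 90-nt single-stranded DNAs with seven random bases just before the constant AC of the nick site (name = the seven bases) was cut by 3 µM recombinant His6-SUMO-tagged Rep nickase domain (300 nM DNA, 50 mM HEPES pH 8.0, 50 mM NaCl, 1 mM MnCl2, 1 h, 37 °C, three replicates). Uncut DNA was amplified and sequenced.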
# [2] = test system: T2, Rep nickase domain of banana bunchy top virus
# T2 sequence (Rep 1-94, printed without the tag): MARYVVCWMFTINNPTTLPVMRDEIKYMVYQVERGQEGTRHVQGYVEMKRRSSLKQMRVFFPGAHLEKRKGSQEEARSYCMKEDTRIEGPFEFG
# Description: as §1
# [3] = test system: T3, Rep nickase domain of cabbage leaf curl virus
# T3 sequence (Rep 1-116, printed without the tag): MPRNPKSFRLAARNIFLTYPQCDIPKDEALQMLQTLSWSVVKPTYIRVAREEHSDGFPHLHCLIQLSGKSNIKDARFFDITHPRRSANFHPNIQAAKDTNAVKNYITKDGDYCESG
# Description: as §1
# [4] = test system: T4, Rep nickase domain of chickpea chlorotic dwarf virus
# T4 sequence (Rep 1-124, printed without the tag): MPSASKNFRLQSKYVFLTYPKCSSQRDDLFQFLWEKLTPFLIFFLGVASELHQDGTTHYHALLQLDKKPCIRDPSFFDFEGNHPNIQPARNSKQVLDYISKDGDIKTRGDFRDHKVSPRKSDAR
# Description: as §1
# [5] = test system: T5, Rep nickase domain of faba bean necrotic yellows virus
# T5 sequence (Rep 1-98, printed without the tag): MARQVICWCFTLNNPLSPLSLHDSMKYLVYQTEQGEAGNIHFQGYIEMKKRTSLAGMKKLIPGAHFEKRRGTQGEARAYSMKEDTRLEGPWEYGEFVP
# Description: as §1
# [6] = test system: T6, Rep nickase domain of maize striate mosaic virus
# T6 sequence (Rep 1-117, printed without the tag): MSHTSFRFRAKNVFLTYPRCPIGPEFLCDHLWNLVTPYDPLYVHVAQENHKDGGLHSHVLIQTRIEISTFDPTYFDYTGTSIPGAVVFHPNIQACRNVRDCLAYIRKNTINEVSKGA
# Description: as §1
# [7] = test system: T7, Rep nickase domain of porcine circovirus 2
# T7 sequence (Rep 2-116, printed without the tag): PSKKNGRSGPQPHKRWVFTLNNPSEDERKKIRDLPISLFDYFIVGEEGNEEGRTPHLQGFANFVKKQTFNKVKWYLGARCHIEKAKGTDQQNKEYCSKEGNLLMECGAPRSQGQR
# Description: as §1
# [8] = test system: T8, Rep nickase domain of tomato yellow leaf curl virus
# T8 sequence (Rep 1-136, printed without the tag): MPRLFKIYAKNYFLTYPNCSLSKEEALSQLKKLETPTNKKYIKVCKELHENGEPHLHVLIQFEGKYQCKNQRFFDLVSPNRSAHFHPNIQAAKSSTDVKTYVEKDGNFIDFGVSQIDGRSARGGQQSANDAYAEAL
# Description: as §1
# [9] = test system: T9, Rep nickase domain of wheat dwarf virus
# T9 sequence (Rep 1-137, printed without the tag): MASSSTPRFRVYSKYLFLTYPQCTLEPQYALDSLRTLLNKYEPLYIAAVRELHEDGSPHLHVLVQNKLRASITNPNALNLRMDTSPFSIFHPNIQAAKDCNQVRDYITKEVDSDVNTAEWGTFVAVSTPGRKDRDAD
# Description: as §1
Sequence,uncleaved DNA left (log2) [1],uncleaved DNA left (log2) [2],uncleaved DNA left (log2) [3],uncleaved DNA left (log2) [4],uncleaved DNA left (log2) [5],uncleaved DNA left (log2) [6],uncleaved DNA left (log2) [7],uncleaved DNA left (log2) [8],uncleaved DNA left (log2) [9]
TATTCTA,-3.17,-0.993,-0.0725,-2.45,0.00732,-0.435,-2.43,0.0753,-0.144
TACGCCA,0.0133,0.0533,-0.153,-2.05,-0.0689,-0.029,-0.0282,0.0253,0.0448
CAATGGC,0.071,-0.0344,-0.625,-0.671,0.0625,-1.22,0.0399,0.0455,-0.0853
GGGAGAC,0.0367,0.0145,0.793,1.97,-0.126,2.2,0.151,0.041,0.103
GATTGTA,-1.52,-0.433,0.014,-0.117,-0.0395,-0.404,-2.23,0.0883,0.0354
TAGGGGC,0.168,0.127,0.814,1.33,0.105,1.75,0.331,-0.0184,0.178
GACTATC,0.242,0.0447,0.308,0.693,0.256,0.832,-1.19,0.2,0.0949
TAGAGCT,0.0598,-0.142,-0.618,-2.04,0.0284,-0.655,-3.17,0.158,-0.0403
TATATCG,0.116,-0.0643,-0.937,-0.277,0.055,-1.09,0.109,-0.0412,-0.106
CTGCCCG,-0.0868,-0.0743,-0.753,-0.497,-0.0302,-0.819,-0.452,-0.172,-0.0747
CGGTTTA,-0.0521,0.0489,0.0265,-0.0348,-0.0843,0.617,-0.1,0.038,0.014
AATACTA,-0.044,-0.0627,-0.259,-2.65,0.05,-0.605,-0.207,-0.0696,-0.013
TGGCAGA,0.0529,0.0585,0.521,1.04,-0.0388,0.804,0.149,-0.102,0.0142
GTTTGCG,0.0617,0.0154,-0.0589,1.13,0.0694,0.853,0.216,-0.193,-0.0443
AAGCAAA,-0.0587,-0.0966,0.0331,-0.177,-0.136,-0.146,-0.0329,-0.0266,-0.0022
AGTGCCC,-0.0411,0.0449,0.228,0.614,-0.135,0.651,-0.128,-0.00115,0.0656
TCCACAC,-0.048,-0.0925,0.0215,-0.452,-0.101,-0.499,-0.0523,-0.0582,-0.0665
TCAGAAA,0.111,0.139,0.135,0.216,0.0764,-0.306,0.0234,0.0598,0.0421
GAACAGC,-0.0396,0.0859,0.648,1.51,0.0704,1.53,0.189,-0.0432,0.0831
CTCAAAT,0.0593,0.152,0.145,-0.485,0.00361,-0.497,-0.0912,-0.175,-0.000349
GGAACGT,-0.0651,0.0829,0.831,1.98,-0.0447,2.16,0.135,-0.042,0.19
ACCCCCG,-0.305,-0.113,-0.825,0.377,-0.0657,-0.606,-0.114,-0.191,-0.213
CTACTGT,0.115,0.0622,0.0416,-0.0843,-0.0324,0.848,-0.0331,0.00412,0.106
CAGCCGC,-0.0709,-0.142,-0.617,-0.767,-0.119,-0.753,0.00333,-0.0904,-0.178
TCGTACG,-0.197,-0.0779,-0.791,-0.821,0.0481,-1.35,0.0923,-0.147,-0.103
AACCTGG,0.137,0.117,0.0897,0.0431,0.132,-0.612,0.0521,0.0302,0.0855
ACTGGTG,0.0104,0.0362,-0.733,-0.182,0.0331,-0.869,0.133,0.0228,-0.0904
GGTCAGA,0.025,0.167,0.756,1.74,-0.0124,2.06,0.178,0.0446,0.168
ACCTGCG,-0.0387,-0.107,0.47,1.75,-0.0481,2.03,-0.00503,-0.25,-0.0791
AATAATG,0.141,0.00154,-0.347,-0.432,0.1,-0.931,0.192,-0.024,-0.011
